Assay results as given in article PMC4336329 (PLoS ONE, 2015).
Among all 310,000 compounds or so, about 14,000 (4.5%) showed an effect of 50% or more. The effect is printed as a negative number. The list shows a part of the results.

target: human ether-à-go-go-related gene (hERG) potassium channel (human, UniProt Q12809); assay: primary screen, population patch clamp on CHO cells stably expressing hERG
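Note: peak tail current of the secondary pulse compared with the same well before compound.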

Chain of human ether-à-go-go-related gene (hERG) potassium channel (Q12809 whole entry, looked up): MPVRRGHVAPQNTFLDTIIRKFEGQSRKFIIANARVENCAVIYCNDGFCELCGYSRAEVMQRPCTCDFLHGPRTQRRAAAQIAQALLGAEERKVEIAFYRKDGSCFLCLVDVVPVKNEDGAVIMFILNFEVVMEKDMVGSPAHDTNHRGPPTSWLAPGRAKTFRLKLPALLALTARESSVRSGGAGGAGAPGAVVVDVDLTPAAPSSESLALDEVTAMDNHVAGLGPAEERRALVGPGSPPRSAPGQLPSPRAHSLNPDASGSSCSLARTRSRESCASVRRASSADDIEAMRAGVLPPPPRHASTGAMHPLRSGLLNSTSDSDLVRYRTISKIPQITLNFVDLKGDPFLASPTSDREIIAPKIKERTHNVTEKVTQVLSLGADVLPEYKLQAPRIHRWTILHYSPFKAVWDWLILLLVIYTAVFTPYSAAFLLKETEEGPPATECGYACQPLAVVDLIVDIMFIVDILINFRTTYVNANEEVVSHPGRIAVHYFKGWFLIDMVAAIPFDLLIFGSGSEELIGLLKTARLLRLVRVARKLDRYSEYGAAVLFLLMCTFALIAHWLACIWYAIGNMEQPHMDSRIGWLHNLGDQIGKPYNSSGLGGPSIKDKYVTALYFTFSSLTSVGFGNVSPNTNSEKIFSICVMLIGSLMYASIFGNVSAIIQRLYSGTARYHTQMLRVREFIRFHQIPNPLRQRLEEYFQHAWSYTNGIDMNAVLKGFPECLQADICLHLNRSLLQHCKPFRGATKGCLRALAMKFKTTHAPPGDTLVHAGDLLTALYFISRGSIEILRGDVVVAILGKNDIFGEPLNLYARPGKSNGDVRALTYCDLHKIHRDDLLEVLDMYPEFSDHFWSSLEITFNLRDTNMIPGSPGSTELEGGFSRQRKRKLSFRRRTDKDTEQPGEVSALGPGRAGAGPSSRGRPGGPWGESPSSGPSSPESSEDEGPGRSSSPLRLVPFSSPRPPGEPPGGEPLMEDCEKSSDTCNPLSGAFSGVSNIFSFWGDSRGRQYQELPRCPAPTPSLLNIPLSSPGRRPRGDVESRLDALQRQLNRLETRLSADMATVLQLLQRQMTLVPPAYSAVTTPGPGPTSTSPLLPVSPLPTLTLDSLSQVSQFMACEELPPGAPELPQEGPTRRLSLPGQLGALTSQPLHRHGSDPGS

Row | Structure (SMILES) | hERG current change (%, negative = inhibition) at 10uM
1 | O=C(NCC1CCCN1S(=O)(=O)c1cccs1)c1ccc([N+](=O)[O-])cc1 (stereo not shown) | -55.2%
2 | O=S(=O)(c1cccc(COc2ccc(Cl)cc2Cl)c1)N1CCOCC1 | 3.46%
3 | O=C(NCC1CCCCC1)c1cc([N+](=O)[O-])ccc1N1CCOCC1 | -20.5%
4 | O=S(=O)(c1ccc(Cl)cc1)N1CCCC1c1nc(-c2cccc(Cl)c2)no1 (stereo not shown) | 7.93%
5 | Cc1cccc(NC(=O)c2nc[nH]c2C(=O)N[C@@H](Cc2ccccc2)C(=O)OCc2ccccc2)c1 | 16.2%
6 | CCOc1ccc(/C=N/OCC(=O)Nc2cc(C)on2)cc1 | 12%
7 | CN(C(=O)c1cc([N+](=O)[O-])ccc1N1CCCC1)C1CCCCC1 | 1.07%
8 | NCCCC[C@H]1CNC(=S)N1CC1(c2ccccc2)CC1 | 12.2%
9 | Cc1cc(C)n2nc(SCC(=O)Nc3ccc(O)cc3)nc2n1 | 6.96%
10 | O=C(CSc1nc(C2CC2)nc2ccccc12)N1CCCCC1 | -27.7%
11 | Cc1ccc(NC(=O)CSc2nnc(C)n2CC2CCCO2)cc1 (stereo not shown) | 0.753%
12 | COc1cccc(NC(=O)CSc2nnc(CNC(=O)c3ccccc3)n2C)c1 | -6.02%
13 | CCN1CCN(c2cc(C)c3cc(NC(=O)CCC(=O)N4CCN(c5ccccc5)CC4)ccc3n2)CC1 | 24.7%
14 | O=S(=O)(Nc1ccccc1N1CCCCC1)c1ccc(F)cc1F | 10.7%
15 | N#Cc1nc(-c2ccco2)oc1N1CCN(c2cccc(Cl)c2)CC1 | -16.1%
16 | O=C(CNC(=O)c1ccco1)OCC(=O)c1cccc2ccccc12 | -2.33%
17 | CCCn1c2c(c(O)c(C(=O)Nc3ncccc3O)c1=O)CCCC2 | 2.9%
18 | CC(=O)c1ccc(S(=O)(=O)NCCCC(=O)NCCc2ccccn2)cc1 | 10%
19 | CSCCC(N=Cc1c(O)n(-c2ccc(Br)cc2)c(=O)[nH]c1=O)C(=O)OC(C)(C)C (stereo not shown) | -12.4%
20 | COc1ccc(C(=O)Nc2c(C)csc2C(=O)O)cc1 | 6.73%
21 | Cc1cc(C)n(CC(=O)N2N=C(C(F)F)CC2(O)C(F)F)n1 (stereo not shown) | 7.85%
22 | O=C(NCc1ccccc1)NC1CC2CCC(C1)N2Cc1ccco1 (stereo not shown) | -17.1%

Row | Structure (SMILES) | hERG current change (%, negative = inhibition) at 10uM
23 | CCNC(=O)Nc1ccc(OC)cc1OC | 25.9%
24 | COc1cc(/C=N/Nc2ccccc2[N+](=O)[O-])ccc1OC(=O)c1ccccc1F | -3.09%
25 | CCN(CC)CCNC(=O)c1cn(-c2ccccc2)nc1-c1cccs1.Cl | -69%
26 | O=C(CSc1ccccc1)NC1CCCCCCC1 | -6.88%
27 | Cc1ccc(N2CCN(C(=S)Nc3ccccc3)CC2)cc1 | 15.7%
28 | CC(=O)Nc1cccc(OCCCNC(=O)c2ccc(C(C)(C)C)cc2)c1 | -14.1%
29 | Cc1cccnc1NC(=S)Nc1ccc(Br)cc1Cl | 5.46%
30 | COc1ccc(CCN(C)C(=O)CSc2nc3ncc(Cl)cc3[nH]2)cc1OC | -10.7%
31 | Cc1cc2nc(-c3ccc4c(c3)CCC4)ccn2n1 | -2.72%
32 | COc1cccc(CNC(=O)CCC(=O)n2ncc3cc(C)ccc32)c1OC | 3.67%
33 | O=C(NC1(C(=O)NC2CCCCC2)CCCCC1)c1ccc2c(c1)OCO2 | 9.47%
34 | O=C1C2C(c3ccccc3)C=CC(c3ccccc3)C2C(=O)N1c1ccccn1 (stereo not shown) | -3.56%
35 | COCCNC(=O)C(=O)Nc1cc2c3c(c1)CCC(=O)N3CCC2 | 43.4%
36 | CC(=O)N1CCc2cc(Br)cc(S(=O)(=O)NCCCN3CCC(C)CC3)c21 | -16.8%
37 | Fc1ccc(Oc2ncccn2)c(F)c1 | 13.3%
38 | Cc1ccc2c(NC(=S)NC(=O)c3ccccc3)cccc2n1 | 2.85%
39 | CCCCCCCCCCCC(=O)O | 24.4%
40 | CC1CCN(C(=O)c2ccc(CSc3nc4ccncc4n3Cc3ccc(F)cc3)cc2)CC1 | -46%
41 | Cc1ccc(S(=O)(=O)c2c(N)n(NC(=O)c3ccco3)c3nc4ccccc4nc23)cc1 | -4.68%
42 | O=Cc1ccc(N2CCCC2)c(F)c1 | -1.25%
43 | O=C(CCc1nnc2ccc(NCc3ccc(F)cc3)nn12)N1CCC2(CC1)OCCO2 | -0.229%
44 | CCCCCCn1c(C)nc2c(c1=O)c1nc3ccccc3nc1n2/N=C/c1ccco1 | -36.1%

Row | Structure (SMILES) | hERG current change (%, negative = inhibition) at 10uM
45 | COc1cccc(NC(=O)c2nn(-c3ccc(OC)cc3OC)c(=O)c3ccccc23)c1 | 13%
46 | CCOc1ccc(S(=O)(=O)N2CCC(C(=O)N3CCN(C)CC3)CC2)cc1Cl | 5.6%
47 | OCCN1CCN(C(=S)NC2CCCC2)CC1 | -15.5%
48 | O=C(CN1CCN(c2cccc(Cl)c2)CC1)c1ccc(O)cc1O | -8.43%
49 | Cc1ccc(SCc2[nH]nc3c2C2(C(=O)Nc4ccc([N+](=O)[O-])cc42)C(C#N)=C(N)O3)cc1 (stereo not shown) | -3.87%
50 | Cc1ccc(CNC(=O)CN(c2ccc(Cl)cc2)S(C)(=O)=O)cc1 | 2.81%
51 | CC1Cc2cc(/C(O)=C3/C(=O)C(=O)N(CCCN4CCOCC4)C3c3ccc(C(C)C)cc3)ccc2O1 (stereo not shown) | 9.02%
52 | O=C(Nc1cccc(-c2nc3ncccc3o2)c1)c1sc2ccccc2c1Cl | 12.6%
53 | CSc1cccc(NC(=O)CCC(=O)O)c1 | -0.827%
54 | COc1ccccc1C1C2CCCCC2(O)CCN1CC(=O)Nc1ccccc1 (stereo not shown) | -32.5%
55 | COC(=O)CN(c1ccc(F)cc1)S(=O)(=O)c1ccc2c(c1)OCCO2 | -32.2%
56 | CC1Cc2ccccc2N1CC(=O)NC(c1ccccc1)c1ccccc1.O=C(O)C(=O)O (stereo not shown) | 19.1%
57 | Cc1ccc(S(=O)(=O)CCC(=O)c2ccc(F)cc2)cc1 | 8.7%
58 | C=CCSc1nccc(=O)[nH]1 | 14.8%
59 | O=S(=O)(NCC1CCCO1)c1ccc(Oc2ccccc2)cc1 (stereo not shown) | -7.25%
60 | C=CCN(CC=C)C(=O)c1ccc(OC2CCN(Cc3ccccn3)CC2)cc1 | -9.67%
61 | CSCCC(NC(=O)c1ccc(Cl)cc1)C(=O)OCC(=O)Nc1cc(Cl)ccc1C#N (stereo not shown) | 9.99%
62 | COc1ccc(NC(=O)c2cc(CC(C)C)on2)cc1OC | -11.4%
63 | COc1ccc(-c2cnn3c4c(c(C)nc23)CCN4C2CCCC2)cc1OC | 2.7%
64 | CC(C)c1ccc(NC(=O)COC(=O)/C=C/c2cccc(Br)c2)cc1 | -6.17%
65 | Cc1csc(CNC(=O)C2CCC(=O)N(CCc3cccc(F)c3)C2)n1 (stereo not shown) | -13.9%
66 | O=C(c1ccco1)N1CCN(C(=O)c2ccc(COc3ccc(F)cc3)o2)CC1 | -62.6%

Row | Structure (SMILES) | hERG current change (%, negative = inhibition) at 10uM
67 | C#Cc1ccc(CN2CCC(Oc3ccc(C(=O)NCc4ccccn4)cc3)CC2)cc1 | -25%
68 | Cc1cc(C(=O)Nc2cccc3ccccc23)n(-c2ccccc2)n1 | 1.06%
69 | Cc1cccc(OP(N)(=O)Oc2cccc(C)c2)c1 | 12.5%
70 | Cc1ccc(C)c(OC(=O)c2cncc(Br)c2)c1 | -14.6%
71 | CCOC(=O)N1CCN(C(=O)CSCC(=O)Nc2nc(-c3ccc(OC)cc3)cs2)CC1 | -34.6%
72 | COc1ccc(-c2cc(-c3ccc(N)cc3)nc(N)c2C#N)cc1OC | -5.47%
73 | CCOC(=O)C(C)N1CC(=O)N(c2ccccc2)C1=O (stereo not shown) | 12.9%
74 | Cc1ccc(/C=N/NC(=O)CSc2nc3ccccc3c(=O)n2-c2ccccc2)s1 | -5.57%
75 | Cc1ccc(S(=O)(=O)N2CCN(C(=O)CN3C(=O)NC4(CCOc5ccccc54)C3=O)CC2)cc1 (stereo not shown) | 1.01%
76 | CCn1c(SCC(=O)NCC2CCCO2)nnc1-c1ccc(Cl)cc1 (stereo not shown) | -2.64%
77 | COc1ccc(/C=N/NC(=O)CCn2cnc(-c3ccccc3)c2-c2ccccc2)cc1 | -46.2%
78 | COc1ccc(OC)c(S(=O)(=O)NCC(c2ccc3c(c2)OCO3)N2CCOCC2)c1 (stereo not shown) | -28.4%
79 | Brc1cc(Cc2nnc(-c3ccccc3)o2)c(Br)s1 | 9.83%
80 | CCOC(=O)c1c(C)[nH]c(C(=O)OC(C)C(=O)NC2CCCCC2C)c1C (stereo not shown) | -5.27%
81 | COc1ccc(CC(=O)Nc2sc3c(c2C(N)=O)CCCC3)cc1 | -1.39%
82 | CCOC(=O)C(NC(C)=O)(Nc1ccc(S(=O)(=O)Nc2ncccn2)cc1)C(F)(F)F (stereo not shown) | 28.7%
83 | O=C(c1ccc(COCC(F)(F)F)cc1)N1CCN(c2ccccn2)CC1 | -18.1%
84 | CC(C)CNC(=O)c1ccccc1NC(=O)c1ccc(CN2CCOCC2)cc1 | -6.15%
85 | Cn1c(O)c(/C=C2\C=Nc3ccccc32)sc1=Nc1ccc(C(=O)O)cc1 | -21.5%
86 | CCCSc1ncccc1C(=O)O | 13.9%
87 | Cc1c(O)c2c3c(cccc3c1O)C(=O)N(c1ccccc1)C2=O | -14%
88 | CCOC(=O)C1(Cc2cccc(OC)c2)CCN(CC=C(C)C)CC1 | -22%
